“And” between values parts separate entries of the source, which are not always exact repeats. Identical values can stand only once. The inconclusive results got no clear call from the source; some entries with a clear call stand among them for comparison. A potency beside an inconclusive call is a rough fit, not a confirmed value. Some compounds were tested as several samples or in several runs, with calls that do not always agree. The source made the active and inactive calls. The call rests on the fitted dose curve; in most records, active means well fitted curve in the direction sought with a large enough effect; inconclusive means small, poorly fitted or top-dose-only effect, or another doubt; inactive means no such curve, though single readings can be large; an effect the other way counts as inactive or inconclusive.
Legend:
[1] = qHTS for Inhibitors of Plasmodium falciparum (DD2) proliferation (AID 504314);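 on activity, negative = inhibition: parasite DNA measured by SYBR Green fluorescence after red cell lysis; plate controls were DMSO vehicle for no effect and artemisinin wells for full effect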; conditions: P. falciparum Dd2 in erythrocytes, SYBR Green growth, 72 h; activity, negative = inhibition: at 6.11 µM (top of the series)
How it was run: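 SYBR Green DNA-fluorescence growth assay: infected RBCs at 0.3% parasitemia, 2.5% hematocrit, 72 h compound exposure, 37C, 5% CO2; overnight lysis with dye at RT; normalized to 0.29 uM artemisinin and vehicle.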

[2] = qHTS for Inhibitors of Plasmodium falciparum (GB4) proliferation (AID 504315); further: nearly all actives have a fitted effect of over 50% in size;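 on activity change, negative = inhibition: 0% = DMSO vehicle and -100% = 0.29 µM artemisinin control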; conditions: P. falciparum GB4 in erythrocytes, SYBR Green DNA, 72 h; activity change, negative = inhibition: at 6.7 µM (top of the series)
How it was run: (§1)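 Parasite growth measured as SYBR Green DNA fluorescence (ex 485, em 535 nm) after overnight lysis following 72 h culture at 37 °C, 0.3% parasitemia, 2.5% hematocrit. Values normalized against DMSO and 0.29 uM artemisinin controls, with plate-stack correction.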

[3] = qHTS for Inhibitors of Plasmodium falciparum (7G8) proliferation (AID 504316); further: nearly all actives have a fitted effect of over 65% in size; conditions: P. falciparum 7G8 in erythrocytes, SYBR Green DNA, 72 h; activity change, negative = inhibition: at 6.7 µM (top of the series)
How it was run: as §1

[4] = qHTS for Inhibitors of Plasmodium falciparum (HB3) proliferation (AID 504318); further: nearly all actives have a fitted effect of over 60% in size;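 on activity change, negative = inhibition: 0% = DMSO vehicle and -100% = artemisinin control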; conditions: P. falciparum HB3 in erythrocytes, SYBR Green DNA, 72 h; activity change, negative = inhibition: at 7.21 µM (top of the series)
How it was run: as §1

[5] = qHTS for Inhibitors of Plasmodium falciparum (CP250) proliferation (AID 504320);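 on activity change, negative = inhibition: plate controls were DMSO vehicle for no effect and 0.29 µM artemisinin control for full effect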
How it was run: as §1
Potency means the concentration at half of the fitted maximal effect; tags describe the fitted curve by direction and shape.

| SMILES | Potency [1] | Potency [2] | Potency [3] | Potency [4] | Potency [5] | activity, negative = inhibition [1] |
| --- | --- | --- | --- | --- | --- | --- |
| O=C1c2ccccc2C(=O)N1CCCC[C@]12Cc3ccccc3[C@H](O1)c1c(c3ccccc3oc1=O)O2 | inconclusive: 1.34 µM [inhibitor, partial curve] | inconclusive: 1.69 µM [inhibitor, partial curve] | active: 1.51 µM | inconclusive: 1.9 µM [inhibitor, single point] | active: 1.69 µM |  |
| COC(=O)C1=C(C(=O)OC)[C@@H]2N(C)c3ccccc3[C@@]23C[C@@H](CO)N(C(=O)NC2CCCC2)C3=N1 | inconclusive: 3.78 µM [inhibitor, single point] | inconclusive: 4.26 µM [inhibitor, single point] | inconclusive: 2.13 µM [inhibitor, single point] | active: 1.9 µM | inconclusive: 3.01 µM [inhibitor, single point] |  |
| FC(F)(F)c1cc(NC(=S)Nc2ccc3cc4ccccc4cc3c2)cc(C(F)(F)F)c1 | inconclusive: 3.78 µM [inhibitor, single point] | inconclusive: 1.9 µM [inhibitor, single point] | inconclusive: 2.13 µM [inhibitor, single point] | inconclusive: 3.38 µM [inhibitor, single point] | inconclusive: 1.9 µM [inhibitor, single point] |  |
| CCCCCCCc1cc2c(cn1)C(=O)C(C)(OC(C)=O)C(O)=C2Cl (stereo not given) | active: 1.89 µM | inconclusive: 1.69 µM [inhibitor, partial curve] | active: 0.953 µM | inconclusive: 1.51 µM [inhibitor, partial curve] | inconclusive: 1.9 µM [inhibitor, single point] |  |
| C#CCCOC(=O)N1C2=NC(C(=O)OC)=C(C(=O)OC)[C@@H]3N(CC=C)c4ccccc4[C@]23C[C@H]1C(=O)OC | inconclusive: 4.24 µM [inhibitor, single point] | inactive | inconclusive: 2.13 µM [inhibitor, single point] | inconclusive: 1.31 µM [inhibitor, partial curve, poor fit] and inactive | inconclusive: 3.01 µM [inhibitor, partial curve, poor fit] |  |
| Cc1cc(C)cc(-c2cc3c(c(-c4c(O)c(-c5cc(C)cc(C)c5)cc5c4CCCC5)c2O)CCCC3)c1 | inconclusive: 3.78 µM [inhibitor, single point] | inconclusive: 1.51 µM [inhibitor, partial curve] | inconclusive: 1.69 µM [inhibitor, partial curve] | inconclusive: 2.13 µM [inhibitor, single point] | inconclusive: 3.79 µM [inhibitor, single point] |  |
| CC(C)=CCCC(C)=CCN1C(=O)[C@@]2(CC(C)=CC[C@@H](C)O2)c2c(Br)cccc21 | inconclusive: 4.24 µM [inhibitor, single point] | inconclusive: 1.51 µM [inhibitor, partial curve] | inconclusive: 2.69 µM [inhibitor, single point] | inconclusive: 1.9 µM [inhibitor, partial curve] | inconclusive: 4.26 µM [inhibitor, partial curve, poor fit] |  |
| CC#CCN1c2ccccc2[C@]23C[C@@H](C(=O)OC)N(S(=O)(=O)c4c(C)noc4C)C2=NC(C(=O)OC)=C(C(=O)OC)[C@H]13 |  | inconclusive: 3.38 µM [inhibitor, single point] | inconclusive: 4.26 µM [inhibitor, single point] | inconclusive: 1.69 µM [inhibitor, single point] | inactive | inactive: 1.29% [at 1.12 µM] |
| CCCCCCCC1=Cc2ccccc2C(CC(C)=O)N1C(=O)OC (stereo not given) | inactive and inconclusive: 1.5 µM [inhibitor, single point] and inconclusive: 52.2 nM [inhibitor, partial curve, poor fit] | inconclusive: 1.51 µM [inhibitor, partial curve] and inconclusive: 2.69 µM [inhibitor, single point] | active: 1.69 µM | active: 1.69 µM | inconclusive: 1.9 µM [inhibitor, partial curve, poor fit] and inconclusive: 1.51 µM [inhibitor, partial curve] and inconclusive: 3.79 µM [inhibitor, single point] |  |
| COc1cccc([C@H]2Oc3ccc(OC)cc3C(=NO[C@@H](C)CN3CCCCc4nc(C)c(C)cc43)[C@H]2O)c1 | inconclusive: 1.34 µM [inhibitor, partial curve] | inconclusive: 2.13 µM [inhibitor, single point] | inconclusive: 2.39 µM [inhibitor, single point] | inconclusive: 2.62 µM [inhibitor, partial curve, poor fit] | inconclusive: 1.69 µM [inhibitor, partial curve, poor fit] |  |
| CN1c2ccccc2[C@@]2(O)C(=O)[C@@]1(C)[C@H]1Cc3ccccc3[C@H]12 | inconclusive: 1.5 µM [inhibitor, single point] | inconclusive: 3.38 µM [inhibitor, single point] | inconclusive: 1.35 µM [inhibitor, single point] | inconclusive: 1.69 µM [inhibitor, single point] | inconclusive: 3.01 µM [inhibitor, single point] |  |
| COc1ccc(O[C@H]2C=C[C@@H](c3ccccc3)O[C@H]2COC(=O)CCC(C)=NOC[C@@H](C)[C@H](OCc2ccccc2)C(C)C)cc1 | inconclusive: 3 µM [inhibitor, single point] | inconclusive: 4.26 µM [inhibitor, single point] | active: 1.9 µM | inconclusive: 3.01 µM [inhibitor, single point] | inconclusive: 4.26 µM [inhibitor, single point] |  |
| COC(=O)c1ccc(CN2C(=O)[C@@]3(CC(C)=CC[C@@H](COc4ccccc4)O3)c3ccccc32)cc1 | inconclusive: 4.24 µM [inhibitor, single point] | inconclusive: 1.69 µM [inhibitor, partial curve] | inconclusive: 3.01 µM [inhibitor, single point] | inconclusive: 1.69 µM [inhibitor, partial curve, poor fit] | inconclusive: 4.26 µM [inhibitor, partial curve, poor fit] |  |
| CCCCCCCC1Cc2ccccc2C(C(C(=O)OC)C(=O)OC)N1C(=O)OC (stereo not given) | inconclusive: 4.24 µM [inhibitor, single point] and inactive and inconclusive: 737 nM [inhibitor, single point] | inconclusive: 4.26 µM [inhibitor, single point] and inconclusive: 478 nM [inhibitor, partial curve] | inconclusive: 4.26 µM [inhibitor, single point] and inconclusive: 1.51 µM [inhibitor, single point] and inconclusive: 1.69 µM [inhibitor, single point] | inconclusive: 1.9 µM [inhibitor, single point] and inconclusive: 1.69 µM [inhibitor, single point] and inconclusive: 1.9 µM [inhibitor, partial curve] | inconclusive: 1.51 µM [inhibitor, partial curve, poor fit] and inconclusive: 3.38 µM [inhibitor, partial curve, poor fit] |  |
| COc1ccc([C@]23Cc4ccccc4[C@H](O2)C2=C(O3)C(=O)c3ccccc3C2=O)cc1 | inconclusive: 3.78 µM [inhibitor, single point] | active: 1.69 µM | active: 1.69 µM | active: 1.51 µM | inactive |  |
| CCOC(=O)CN1C(=O)[C@@]2(CC(C)=CC[C@@H](COc3ccccc3)O2)c2c(Br)cccc21 | inconclusive: 4.24 µM [inhibitor, single point] | inconclusive: 1.69 µM [inhibitor, single point] | inconclusive: 2.13 µM [inhibitor, single point] | inconclusive: 1.51 µM [inhibitor, partial curve] | inconclusive: 1.9 µM [inhibitor, single point] |  |
| COC(=O)N[C@@H](C=Cc1ccccc1)C(C(=O)OC)=C(C)NCc1ccccc1 | inconclusive: 4.24 µM [inhibitor, single point] | active: 1.69 µM | inconclusive: 1.51 µM [inhibitor, partial curve, poor fit] | inconclusive: 2.13 µM [inhibitor, single point] | inconclusive: 3.38 µM [inhibitor, single point] |  |
| COC1=C(C(=O)c2ccccc2)C(=O)[C@@]2(CC=C(C)C)C[C@@H]([S+](=O)([O-])c3ccccc3)C(C)(C)[C@@]1(CC=C(C)C)C2=O | inconclusive: 3.78 µM [inhibitor, single point] | inconclusive: 3.01 µM [inhibitor, single point] | inconclusive: 0.426 µM [inhibitor, single point] | active: 1.9 µM | inconclusive: 4.26 µM [inhibitor, single point] |  |

Reference: PubChem BioAssay (NCATS)
